# Experimental data as given in the supplement of paper PMC4604168 (melanoma cell lines).
# This is one part of the list. Single values are uncertain, as repeats are few or missing.
# Key:
# Test in all cases: cell count relative to DMSO control; melanoma cells; higher = more viable cells
# Settings in all cases: library dose: standard library concentration; 72 h
# SkMel28 = system: SkMel28
# SkMel2 = system: SkMel2
# SkMel30 = system: SkMel30
# SkMel5 = system: SkMel5
# UACC257 = system: UACC257
# UACC62 = system: UACC62
# WM115 = system: WM115
# WM1716 = system: WM1716
# WM1745 = system: WM1745
# WM3526 = system: WM3526
# 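Note: cells treated in 1,536-well plates, then fixed and DAPI-stained, with nuclei counted from automated high-throughput microscope images.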
SMILES,cell count (SkMel28) [%],cell count (SkMel2) [%],cell count (SkMel30) [%],cell count (SkMel5) [%],cell count (UACC257) [%],cell count (UACC62) [%],cell count (WM115) [%],cell count (WM1716) [%],cell count (WM1745) [%],cell count (WM3526) [%]
"CN(NC(=O)CC(=O)NN(C)C(=S)c1ccccc1)C(=S)c1ccccc1 + CCc1ccc(CCOc2ccc(CC3SC(=O)NC3=O)cc2)nc1 [pioglitazone] (first compound 0.03 µM, partner dose 10 µM)",46.7,82.9,105,83.9,98.5,64.6,22.3,74.8,31,81.8
"CCCCCCCCc1ccc(CCC(N)(CO)CO)cc1 [fingolimod] + Cc1nc(Nc2ncc(C(=O)Nc3c(C)cccc3Cl)s2)cc(N2CCN(CCO)CC2)n1 [dasatanib] (first compound 10 µM, partner dose 0.02 µM)",4.99,1.21,49.3,54.4,65.4,20.7,25,45.7,36.2,57.7
"CN(NC(=O)CC(=O)NN(C)C(=S)c1ccccc1)C(=S)c1ccccc1 + O=C(O)C(=O)Nc1sc2c(c1C(=O)O)CCNC2 [TCS401] (first compound 0.03 µM, partner dose 8.33333 µM)",4.81,80.5,111,66.2,91.3,92.2,23.2,86.5,30.3,113
"CCc1ccc(CCOc2ccc(CC3SC(=O)NC3=O)cc2)nc1 (stereo not given) [pioglitazone] + COc1ccc2c(c1)CCC1C2CCC2(C)C(NCCCCCCN3C(=O)C=CC3=O)CCC12 [U73122] (first compound 10 µM, partner dose 2 µM)",61.7,79.3,91.3,90.7,78.2,37.5,77.1,64.6,68.2,77.3
"CN(NC(=O)CC(=O)NN(C)C(=S)c1ccccc1)C(=S)c1ccccc1 + O=C1NC(=O)/C(=C/c2ccc(-c3ccc(F)cc3O)o2)S1 [AS252424] (first compound 0.03 µM, partner dose 5 µM)",4.66,91.3,79.8,47.5,90.5,51.9,24.5,90.8,49.8,85.7
"CC(C)(C)c1cnc(CSc2cnc(NC(=O)C3CCNCC3)s2)o1 + CCN(CC)CCCCNc1ncc2cc(-c3cc(OC)cc(OC)c3)c(NC(=O)NC(C)(C)C)nc2n1 [PD173074] (first compound 0.05 µM, partner dose 0.5 µM)",42.8,60.7,109,51.5,80.9,71.7,73.2,70.2,82.7,86.6
"COc1cc2c(Oc3ccc4[nH]c(C)cc4c3F)ncnc2cc1OCCCN1CCCC1 [cediranib] + O=C1NC(=O)/C(=C/c2ccc(-c3ccc(F)cc3O)o2)S1 [AS252424] (first compound 2 µM, partner dose 5 µM)",108,86.6,89.5,106,95.7,81.6,112,113,72.7,72.3
"CC(C)(C)c1cnc(CSc2cnc(NC(=O)C3CCNCC3)s2)o1 + Oc1nc(-c2ccc(C(F)(F)F)cc2)nc2c1CSCC2 [XAV939] (first compound 0.05 µM, partner dose 10 µM)",51.3,83.3,90.5,62.9,81.7,92.4,77.7,51.8,89.9,87.8
"CC(C)(C)c1cnc(CSc2cnc(NC(=O)C3CCNCC3)s2)o1 + CN(NC(=O)CC(=O)NN(C)C(=S)c1ccccc1)C(=S)c1ccccc1 [STA4783] (first compound 0.05 µM, partner dose 0.03 µM)",15.5,25.6,68.2,36.2,81.1,30.3,10.2,55.5,15.8,93.4
"CCCCCCCCc1ccc(CCC(N)(CO)CO)cc1 [fingolimod] + O=C(O)c1ccc2c(c1)nc(Nc1cccc(Cl)c1)c1ccncc12 [CX4945] (first compound 10 µM, partner dose 2 µM)",1.49,0.392,8.1,46.1,72.1,13.1,17.5,35.5,13,23
"CN(NC(=O)CC(=O)NN(C)C(=S)c1ccccc1)C(=S)c1ccccc1 + O=S(=O)(c1ccccc1)N(CC(F)(F)F)c1ccc(C(O)(C(F)(F)F)C(F)(F)F)cc1 [T0901317] (first compound 0.03 µM, partner dose 7 µM)",3.27,65.4,90.5,66.5,74.6,39,17.2,77.7,36,68.3
"CC(C)(C)c1cnc(CSc2cnc(NC(=O)C3CCNCC3)s2)o1 + COc1ccc2c(c1)CCC1C2CCC2(C)C(NCCCCCCN3C(=O)C=CC3=O)CCC12 [U73122] (first compound 0.05 µM, partner dose 2 µM)",89.8,111,85.1,104,108,94.6,71.7,52.7,77.6,105
"NC(=O)c1ccc(N(C(N)=O)c2c(F)cccc2F)nc1-c1ccc(F)cc1F + O=C(CCCCCCC(=O)Nc1ccccc1)NO [vorinostat] (first compound 2 µM, partner dose 0.4 µM)",42.6,66.8,101,63.3,73.5,69.5,87,97.1,69.7,80
"NC(=O)c1ccc(N(C(N)=O)c2c(F)cccc2F)nc1-c1ccc(F)cc1F + COc1cc2c(Oc3ccc4[nH]c(C)cc4c3F)ncnc2cc1OCCCN1CCCC1 [cediranib] (first compound 2 µM, partner dose 2 µM)",117,100,115,76.7,95.1,73.5,116,119,70.3,92.7
"CCCCCCCCc1ccc(CCC(N)(CO)CO)cc1 [fingolimod] + COCC[n+]1c2c(n(Cc3cnccn3)c1C)C(=O)c1ccccc1C2=O [YM155] (first compound 10 µM, partner dose 0.002 µM)",0.223,0.089,13.5,38.1,37,20.6,13.3,50.4,4.3,34
"Cc1ccc(NC(=O)c2cccc(N(C)C)c2)cc1NC(=O)c1ccc(O)cc1 + COc1ccc2c(c1)CCC1C2CCC2(C)C(NCCCCCCN3C(=O)C=CC3=O)CCC12 [U73122] (first compound 10 µM, partner dose 2 µM)",83.8,106,117,56.3,89.5,76.3,74.6,101,68.1,107
"CCCCCCCCc1ccc(CCC(N)(CO)CO)cc1 [fingolimod] + CN(C)S(=O)(=O)c1ccc2c(c1)/C(=C/c1cc3c([nH]1)CCCC3)C(=O)N2 [SU6656] (first compound 10 µM, partner dose 2 µM)",0.225,0.0905,7.06,38.7,51.7,19.2,5.02,23.5,7.85,21.5
"CC(C)(C)c1cnc(CSc2cnc(NC(=O)C3CCNCC3)s2)o1 + O=C(O)C(=O)Nc1sc2c(c1C(=O)O)CCNC2 [TCS401] (first compound 0.05 µM, partner dose 8.33333 µM)",72.8,89.7,122,59.9,92.9,95.4,91,85.8,76.1,96.7
"NC(=O)c1ccc(N(C(N)=O)c2c(F)cccc2F)nc1-c1ccc(F)cc1F + OCCn1cc(-c2cnc3nnn(Cc4ccc5ncccc5c4)c3n2)cn1 [PF04217903] (first compound 2 µM, partner dose 5 µM)",83.4,89.7,111,97.1,111,110,78.9,107,92.5,92.1
"CCCCCCCCc1ccc(CCC(N)(CO)CO)cc1 [fingolimod] + C[C@@H](Oc1cc(-c2cnn(C3CCNCC3)c2)cnc1N)c1c(Cl)ccc(F)c1Cl [Crizotinib] (first compound 10 µM, partner dose 1 µM)",0.507,0.108,13.7,53.8,64.3,20.1,26.1,48.9,4.46,60.4
"NC(=O)c1ccc(N(C(N)=O)c2c(F)cccc2F)nc1-c1ccc(F)cc1F + C[C@@H](Oc1cc(-c2cnn(C3CCNCC3)c2)cnc1N)c1c(Cl)ccc(F)c1Cl [Crizotinib] (first compound 2 µM, partner dose 1 µM)",75.2,77.8,92.8,75.7,89.4,74.7,64.2,92.4,61.1,84.5
"NC(=O)c1ccc(N(C(N)=O)c2c(F)cccc2F)nc1-c1ccc(F)cc1F + CCCS(=O)(=O)Nc1ccc(F)c(C(=O)c2c[nH]c3ncc(Cl)cc23)c1F [PLX4720] (first compound 2 µM, partner dose 0.4 µM)",41.8,103,82.6,65.7,86.8,42.5,87.9,66.3,78.1,51.3
"CC(C)(C)c1cnc(CSc2cnc(NC(=O)C3CCNCC3)s2)o1 + Cc1cc([N+](=O)[O-])ccc1NS(=O)(=O)c1cc(Cl)ccc1Cl [FH535] (first compound 0.05 µM, partner dose 5 µM)",55.6,69.5,81.7,61.7,57.9,67.5,88.6,69.9,75.3,80.7
"NC(=O)c1ccc(N(C(N)=O)c2c(F)cccc2F)nc1-c1ccc(F)cc1F + C#Cc1cccc(Nc2ncnc3cc(OCCOC)c(OCCOC)cc23)c1 [erlotinib] (first compound 2 µM, partner dose 4 µM)",74.2,90.3,64.2,57,103,74.3,67.1,99.8,45,66.4
